The campaign covered roughly 140,000 compounds. About 240 (0.17%) were called active. This list was built around the results that the source calls inconclusive (neither active nor inactive); the mix of calls is not that of the screen. Calls follow the shape of the dose curve; as a rule, active = well fitted inhibition curve with a large enough effect; inconclusive = small, poorly fitted or top-dose-only effect; inactive = no such curve, though single readings can be large or run the other way. Potencies beside an inconclusive call are fits to weak or partial responses and may not hold up.
Experiment: Primary qHTS assay for inhibitors of alpha-synuclein gene (SNCA) expression; also: nearly all actives have a fitted effect of over 45% in size;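 as to activity change, negative = inhibition: plate controls were DMSO cells for no effect and cell-free wells for full effect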
Conditions: HEK-293 SNCA-luciferase knock-in, luminescence, 24 h; activity change, negative = inhibition: at 57.2 µM (top of the series) unless noted
Potency is read from the fitted curve at half-maximal effect; tags tell the direction and shape of the fitted curve.

| SMILES | Potency | activity change, negative = inhibition |
| --- | --- | --- |
| O=C(c1ccc(Br)cc1)N1CCC(c2nc3ccccc3s2)CC1 | inconclusive: 3.16 µM [inhibitor, partial curve, poor fit] | – |
| COc1ccc(C2Cn3nnc(C(=O)N4CCN(C(=O)CCc5ccccc5)CC4)c3CO2)cc1 (stereo unspecified) | inconclusive: 8.91 µM [inhibitor, partial curve, poor fit] | – |
| Cn1ccc2c(C(=O)NCc3cccnc3)nc(Nc3ccccc3)cc21 | inconclusive: 1.12 µM [inhibitor, full curve, poor fit] | – |
| Fc1cccc(CN2CCNc3cc(Nc4ccccc4)ncc3C2)c1 | – | inactive: 32.2% [at 87.6 µM] |
| CC(C)(C)C(=O)Nc1ccc2nc(SCc3ccccc3)sc2c1 | – | inactive: 97% |
| CCCN1CCC(N2C[C@H]3OC(=O)N(CCc4cccc(Cl)c4)[C@H]3C2)CC1 | inconclusive: 39.8 µM [inhibitor, single point] | – |
| O=C(NCc1cccs1)C1CCCN(c2nccc(Nc3ccccc3F)n2)C1 (stereo unspecified) | – | inactive: -29.3% |
| Cc1cc2nc(CCNC(=O)[C@H]3CCC[C@@H](O)C3)[nH]c2cc1C | – | inactive: 3.72% |
| O=C(NCc1nnc2ccc(-c3ccccc3)nn12)c1cccc(Br)c1 | – | inactive: -21.9% |
| Cc1cc(Cl)ccc1OCCN1CCN(C(=O)[C@H]2CCC[C@H](O)C2)CC1 | inconclusive: 7.94 µM [inhibitor, full curve, poor fit] | – |
| Cc1ccc(NC(=O)C2CCN(C(=O)c3cnn(-c4ccccc4)c3-n3cccc3)CC2)cc1Cl | inconclusive: 35.5 µM [inhibitor, single point] | – |
| COc1ccc(C(=O)NC2CCN(c3cc(-c4ccc(Cl)cc4)[nH]n3)CC2)cc1 | inconclusive: 17.8 µM [inhibitor, partial curve, poor fit] | – |
| O=C(NCc1ccccc1)c1ccccc1OC1CN(Cc2cccnc2F)C1 | – | inactive: 12.9% |
| O=C(NCc1ccc(F)cc1)c1cn2cc(-c3cccc(C(F)(F)F)c3)sc2n1 | – | inactive: 11.8% |
| COc1ccc(-c2nc(C3CC3)nc3c2CN(C(=O)c2ccccc2)CC3)cc1 | inconclusive: 10 µM [inhibitor, partial curve, poor fit] | – |
| CCOc1ccc(NC(=O)Cn2c(=O)n(CC(=O)NCCc3ccccc3)c(=O)c3sccc32)cc1 | inconclusive: 39.8 µM [inhibitor, single point] | – |
| O=C(NCc1ccccc1)c1ccc(-c2cccc3c2CCNC3)o1 | – | inactive: 8.25% |
| Cn1nccc1-c1ncc2c(n1)OCCN(Cc1ccc(F)cc1F)C2=O | – | inactive: 8.86% [at 87.6 µM] |
| CC(C)c1ccc(NC(=O)C(Cc2ccccc2)n2cccc2)cc1 (stereo unspecified) | inconclusive: 17.8 µM [inhibitor, partial curve] | – |
| O=C(c1ccncc1)N1CCC[C@@]2(CCN(C(c3ccccc3)c3ccccc3)C2)C1 | inconclusive: 14.1 µM [inhibitor, partial curve, poor fit] | – |
| CC1(C)[C@H](Cc2cc(CC3CCCCC3)on2)C[C@@H]1NC(=O)C1CCC1 | inconclusive: 1.78 µM [inhibitor, full curve] | – |
| CCOC(=O)CCNC(=O)N1CCC(Cc2noc(-c3ccncc3)n2)C1 (stereo unspecified) | inconclusive: 3.16 µM [inhibitor, single point] | – |

| SMILES | Potency | activity change, negative = inhibition |
| --- | --- | --- |
| COc1ccc(F)cc1Nc1cnc2ccc(N(C)Cc3cccnc3)nn12 | inconclusive: 56.2 µM [inhibitor, single point] | – |
| O=C(NCc1cccs1)c1csc(N2CCN(c3ccc(F)cc3)CC2)n1 | inconclusive: 10 µM [inhibitor, partial curve, poor fit] | – |
| COc1ccc2nc(N3CCN(C(=O)CS(=O)(=O)c4ccc(C)cc4)CC3)sc2c1 | – | inactive: -17% |
| CCC(C)C(=O)NCc1cc2c(nc1OC)CN(CCc1ccccn1)C2=O (stereo unspecified) | inconclusive: 3.55 µM [inhibitor, single point] | – |
| NCc1ccccc1-c1ccc(O)cc1 | – | inactive: 10.7% [at 87.6 µM] |
| Cc1noc([C@@H]2CN(Cc3ccccc3C)C[C@H]2CO)n1 | – | inactive: 1.19% |
| O=C(C1CCc2nnc(-c3ccc(Cl)nc3)n21)N1CCN(c2ncccn2)CC1 (stereo unspecified) | inconclusive: 22.4 µM [inhibitor, partial curve, poor fit] | – |
| CC(=O)c1cccc(NC(=O)CN2C(=O)NC(c3ccc(C)cc3)C3=C2COC3=O)c1 (stereo unspecified) | inconclusive: 39.8 µM [inhibitor, single point] | – |
| O=C(NCC1CCCCC1)C1CCN(c2nccc(Nc3ccccc3Cl)n2)CC1 | inconclusive: 31.6 µM [inhibitor, single point] | – |
| COc1ccc(CNC(=O)c2cc(-c3ccc(OC)c(OC)c3)nc3n[nH]c(-c4ccc(C)cc4)c23)cc1 | inconclusive: 11.2 µM [inhibitor, partial curve, poor fit] | – |
| O=C(Cc1ccsc1)N1CCC([C@@H]2CNC[C@H]2CO)CC1 | inconclusive: 39.8 µM [inhibitor, single point] | – |
| Cc1ccc(F)c(C(CC(=O)NCc2ccco2)c2c[nH]c3ccc([N+](=O)[O-])cc23)c1 (stereo unspecified) | inconclusive: 25.1 µM [inhibitor, single point] | – |
| O=C1Nc2ccccc2CN(CC2CCCCC2)C12CCNCC2 | – | inactive: 1.94% |
| CCOc1ccc(/C=C(\C#N)C(=O)Nc2sc3c(c2C(=O)OC)CCC3)cc1OC | – | inactive: -12.2% |
| COc1ccc(-c2ccc3nc(-c4cccc(Br)c4)oc3c2)c(OC)c1OC | inconclusive: 3.55 µM [inhibitor, full curve, poor fit] | – |
| COC(=O)c1c(SCC(=O)Nc2ccccc2C(F)(F)F)[nH]c2ccc(Cl)cc2c1=O | – | inactive: -3.65% |
| Cc1cccnc1NC(=O)Cn1nc2c(cc1=O)CCCCC2 | inconclusive: 39.8 µM [inhibitor, single point] | – |
| Cc1cccc(Nc2cc(C)nc3nc(-c4ccccc4)nn23)c1 | – | inactive: 24.3% |
| COc1ccc(N(C)C(=O)c2oc(=O)c3ccccc3c2-c2ccc(C)cc2)c(OC)c1 | inconclusive: 39.8 µM [inhibitor, single point] | – |
| COc1ccc(-c2nc(C)nc3c2CN(C(=O)C2CCCC2)CC3)cc1 | – | inactive: -4.68% |
| CC1=C[C@@H](CNC(=O)COc2ccccc2)[C@H](C(C)C)C[C@H]1CC(=O)NCc1ccccn1 | inconclusive: 3.55 µM [inhibitor, full curve, poor fit] | – |
| CCOC(=O)c1ccc(O)cc1 | – | inactive: 15.3% [at 25.6 µM] |

| SMILES | Potency | activity change, negative = inhibition |
| --- | --- | --- |
| CC1=C[C@@H](CNCc2ccco2)[C@H](C(C)C)C[C@H]1Cc1nnc(-c2ccccc2F)o1 | inconclusive: 39.8 µM [inhibitor, single point] | – |
| CCOC(=O)c1ccc(N2C(=O)c3n[nH]c(-c4cccs4)c3C2c2cccc(O)c2)cc1 (stereo unspecified) | inconclusive: 22.4 µM [inhibitor, single point] | – |
| O=C(c1cccc(O)c1)N1CCCC(CCc2cccc(C(F)(F)F)c2)C1 (stereo unspecified) | – | inactive: 7.7% |
| CCOC(=O)c1ccc(N2C(=O)c3n[nH]c(-c4cccs4)c3C2c2cccc(OC)c2)cc1 (stereo unspecified) | active: 17.8 µM | – |
| O=S(=O)(c1ccc(Cl)cc1)c1nnn2c1nc(NCc1cccs1)c1sccc12 | inconclusive: 39.8 µM [inhibitor, single point] | – |
| CN(Cc1cccnc1)c1nc2c(c(=O)[nH]1)CCN(Cc1ccc(F)cc1F)CC2 | – | inactive: 2.64% |
| CCn1c(C)c(C)c2cc(C(=O)N3CCN(c4cccc(C)c4C)CC3)ccc21 | inconclusive: 39.8 µM [inhibitor, single point] | – |
| COc1cc(NC(=O)NC(C)c2c(-n3cccc3)sc3c2CCN(C)C3)cc(OC)c1 (stereo unspecified) | inconclusive: 12.6 µM [inhibitor, single point] | – |
| COc1ccc(C(=O)NC2CCN(c3ccnc4ccnn34)C2)cc1 (stereo unspecified) | inconclusive: 31.6 µM [inhibitor, partial curve] | – |
| O=C(c1cc(-c2cccc(C(F)(F)F)c2)c2cccn2n1)N1CCOCC1 | inconclusive: 3.98 µM [inhibitor, single point] | – |
| O=C(Cc1ccccn1)N1CCCC(C(=O)N2CCC(c3ccccc3)CC2)C1 (stereo unspecified) | inconclusive: 3.16 µM [inhibitor, full curve, poor fit] | – |
| [N-]=[N+]=Nc1ccc(C(=O)CSC[C@H](NC(=O)CC[C@H](N)C(=O)O)C(=O)NCC(=O)O)cc1 | inconclusive: 5.01 µM [inhibitor, partial curve, poor fit] | – |
| COc1ccccc1Nc1ccnc(N2CCCC(C(=O)NCC(F)F)C2)n1 (stereo unspecified) | – | inactive: 1.41% |
| Cc1ccc(C)c(Nc2nc3c(S(=O)(=O)c4ccc(Br)cc4)nnn3c3ccsc23)c1 | inconclusive: 25.1 µM [inhibitor, single point] | – |
| CN(C)c1cccc(C(=O)NC2CCN(c3cc(-c4ccccc4)[nH]n3)CC2)c1 | – | inactive: 79.3% |
| COc1ccc(N(C(=O)c2ccc(Cl)cc2)S(=O)(=O)c2ccc(C)cc2)cc1 | inconclusive: 25.1 µM [inhibitor, partial curve] | – |
| Cc1nnc2n1CCC(NC(=O)c1ccc(=O)[nH]c1)CC2 (stereo unspecified) | inconclusive: 2.82 µM [inhibitor, full curve] | – |
| Cc1ccc(-c2cc(N3CCCN(C(=O)c4ccccc4F)CC3)n[nH]2)cc1C | – | inactive: -12.2% |
| CCC1CN(S(=O)(=O)c2ccc3c(c2)NC(=O)CC(=O)N3)c2cc(Cl)ccc2O1 (stereo unspecified) | inconclusive: 28.2 µM [inhibitor, single point] | – |
| Cc1cc(C(=O)N2C[C@@H](COCC3CC3)[C@H](c3ccncc3)C2)c(C)o1 | inconclusive: 39.8 µM [inhibitor, single point] | – |
| C#CCN(C)CC1=Cc2ccccc2Oc2ccccc21 | inconclusive: 42.9 µM [inhibitor, single point] | – |
| O=C(NCc1cccs1)C1CCCCN1Cc1ccc(-c2cccs2)cc1 (stereo unspecified) | inconclusive: 14.1 µM [inhibitor, single point] | – |

— PubChem BioAssay AID1671194 (National Center for Advancing Translational Sciences (NCATS), 2021)
